Results taken from patent publication US11254690B2, “PTEFb inhibiting macrocyclic compounds” (BAYER AKTIENGESELLSCHAFT, priority 2017, dated 2022).
The source holds more than one record for some entries. They are shown here; other results are not. There may be further records. Values that stand side by side appear to be repeats (runs, samples, wells or individuals); a mean can stand among them.

Biological target: T1, human PTEFb (CDK9/Cyclin T1) (Homo sapiens, UniProt P50750)
T1 construct: purchased ProQinase, Freiburg, Germany
T1 sequence (P50750 whole entry): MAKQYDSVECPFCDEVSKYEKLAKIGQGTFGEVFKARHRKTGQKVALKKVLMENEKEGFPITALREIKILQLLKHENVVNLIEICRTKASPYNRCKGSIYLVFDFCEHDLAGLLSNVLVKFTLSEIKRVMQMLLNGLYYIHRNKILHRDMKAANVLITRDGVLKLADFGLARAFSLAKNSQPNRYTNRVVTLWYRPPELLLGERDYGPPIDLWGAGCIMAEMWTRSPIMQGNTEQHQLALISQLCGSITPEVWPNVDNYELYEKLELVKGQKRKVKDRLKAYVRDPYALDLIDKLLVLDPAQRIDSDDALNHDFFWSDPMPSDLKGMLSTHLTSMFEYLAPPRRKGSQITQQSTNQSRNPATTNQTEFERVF
T1 sequence (O60563 whole entry partner): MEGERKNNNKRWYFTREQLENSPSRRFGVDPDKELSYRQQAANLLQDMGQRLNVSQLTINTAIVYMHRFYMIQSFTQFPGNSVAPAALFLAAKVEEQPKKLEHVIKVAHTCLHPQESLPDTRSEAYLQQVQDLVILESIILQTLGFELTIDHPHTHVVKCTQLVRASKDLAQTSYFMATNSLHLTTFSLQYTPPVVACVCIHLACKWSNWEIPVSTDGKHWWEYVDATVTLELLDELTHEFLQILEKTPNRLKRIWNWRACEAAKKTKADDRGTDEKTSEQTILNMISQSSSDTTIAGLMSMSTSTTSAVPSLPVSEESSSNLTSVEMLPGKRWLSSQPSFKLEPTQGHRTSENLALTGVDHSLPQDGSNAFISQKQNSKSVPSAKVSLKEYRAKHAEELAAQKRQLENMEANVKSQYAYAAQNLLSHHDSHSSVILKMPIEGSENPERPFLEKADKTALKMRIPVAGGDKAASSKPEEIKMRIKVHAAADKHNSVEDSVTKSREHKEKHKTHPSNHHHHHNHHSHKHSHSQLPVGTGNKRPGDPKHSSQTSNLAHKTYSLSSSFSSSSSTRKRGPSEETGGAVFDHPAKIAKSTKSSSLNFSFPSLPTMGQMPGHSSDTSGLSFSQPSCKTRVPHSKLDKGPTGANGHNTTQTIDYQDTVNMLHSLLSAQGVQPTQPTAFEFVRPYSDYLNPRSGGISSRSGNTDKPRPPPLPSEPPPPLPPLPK
Test: Surface Plasmon Resonance PTEFb
Type: binding
Conditions: SPR, 37° C.; * = arithmetic means of more than one value; read-out: Equilibrium dissociation constant KD
Excerpt: 8. Surface Plasmon Resonance PTEFb
The term “surface plasmon resonance”, as used herein, refers to an optical phenomenon that allows for the analysis of the reversible associations of biological molecules in real time within a biosensor matrix, for example using the Biacore® system (GE Healthcare Biosciences, Uppsala, Sweden). Biacore® uses the optical properties of surface plasmon resonance (SPR) to detect alterations in the refractive index of a buffer, which changes as molecules in solution interact with the target immobilized on the surface. In brief, proteins are covalently bound to the dextran matrix at a known concentration and a ligand for the protein is injected through the dextran matrix. […] This angle shift can be measured. […]
The ability of the compounds according to the invention to bind human PTEFb may be determined using surface plasmon resonance (SPR). KD values and koff values may be measured using a Biacore® T200 instrument (GE Healthcare, Uppsala, Sweden).
For SPR measurements, recombinant human PTEFb (CDK9/Cyclin T1 recombinant human active protein kinase purchased from ProQinase, Freiburg, Germany) is immobilized using standard amine coupling (Johnsson B et al, Anal Biochem. 1991 Nov. 1; 198(2):268-77). […] Binding kinetics is measured at 37° C. with a flow rate of 100 μl/min in running buffer. […]

In the case of `CC1CCCOc2cc(ccc2F)-c2cc(ncc2F)Nc2cc(CS(C)(=N)=O)cc(n2)O1` (single isomer, unassigned) [Example 16, 3,20-difluoro-14-methyl-10-[(S-methylsulfonimidoyl)methyl]-13,18-dioxa-5,7,24-triazatetracyclo[17.3.1.1^2,6.1^8,12]pentacosa-1(23),2(25),3,5,8(24),9,11,19,21-nonaene], the Kd is reported as 0.28, 0.066, 0.024, 0.029 nM [one cell].
